# The other results are listed elsewhere or left out.
# What was measured:
# [1] = test system: HSkMC (human skeletal muscle cells); experiment: cytotoxicity call (relative viability < 0.9); details: 10 µM
# [2] = test system: HepG2; experiment: cytotoxicity call (relative viability < 0.9); details: 10 µM
# [3] = test system: S. aureus RN4220; experiment: growth inhibition call (relative growth <= 0.2); details: 50 µM
SMILES,cytotoxicity call [1],cytotoxicity call [2],growth inhibition call [3]
C[C@H]1CN([C@@H](C)CO)S(=O)(=O)c2ccc(C#Cc3cccc(F)c3)cc2O[C@H]1CN(C)S(=O)(=O)c1cn(C)cn1,inactive,inactive,inactive
C[C@@H]1CCCCO[C@H](CN(C)S(=O)(=O)c2cccs2)[C@H](C)CN([C@H](C)CO)C(=O)c2cc(NC(=O)CCC(F)(F)F)ccc2O1,inactive,inactive,inactive
CN(C)CCCN1c2ccccc2Sc2ccccc21.Cl,inactive,active,inactive
C[C@@H]1CN([C@H](C)CO)C(=O)c2cc(NC(=O)Nc3cccc4ccccc34)ccc2O[C@H]1CN(C)Cc1ccc(Oc2ccccc2)cc1,inactive,active,inactive
Cc1noc(C)c1NC(=O)Nc1ccc2c(c1)C(=O)N([C@@H](C)CO)C[C@H](C)[C@H](CN(C)Cc1ccncc1)OCCCC[C@@H](C)O2,inactive,inactive,inactive
C[C@@H]1CCCCO[C@@H](CN(C)C(=O)Nc2ccc3c(c2)OCO3)[C@H](C)CN([C@H](C)CO)C(=O)c2cc(NC(=O)Nc3cccc4ccccc34)ccc2O1,inactive,inactive,inactive
COCC(=O)N1C[C@H](C)[C@H](OC)CN(C)C(=O)c2ccc(NC(=O)c3ccc(OC)cc3)cc2OC[C@H]1C,inactive,inactive,inactive
CC(=O)Oc1cccc(C(=O)O)c1OC(C)=O,inactive,inactive,inactive
O=C(O)CCC(=O)c1ccc(-c2ccccc2)cc1,inactive,inactive,inactive
C[C@H]1CN([C@@H](C)CO)C(=O)Cc2cc(NS(=O)(=O)c3ccc(F)cc3)ccc2O[C@@H]1CN(C)C(=O)Nc1cccc2ccccc12,inactive,inactive,inactive
CC(=O)OCC(=O)C1(O)CCC2C3CCC4=CC(=O)C=CC4(C)C3C(O)CC21C (configuration not stated),inactive,inactive,inactive
C[C@@H]1CN([C@@H](C)CO)C(=O)Cc2cc(NS(=O)(=O)c3ccccc3)ccc2O[C@H]1CN(C)S(=O)(=O)c1cccs1,inactive,inactive,inactive
COc1ccc(NC(=O)Nc2ccc3c(c2)C(=O)N([C@H](C)CO)C[C@@H](C)[C@@H](CN(C)C(=O)NC(C)C)OCCCC[C@H](C)O3)cc1,inactive,inactive,inactive
COc1ccc(CN2C[C@@H](C)[C@H](OC)CN(C)C(=O)c3ccc(NC(=O)c4nc5ccccc5s4)cc3OC[C@H]2C)cc1,inactive,inactive,inactive
C[C@H](CO)N1C[C@H](C)[C@H](CN(C)Cc2ccc3c(c2)OCO3)OCCCC[C@H](C)Oc2ccc(NC(=O)CCC(F)(F)F)cc2C1=O,inactive,inactive,inactive
C[C@@H]1CCCCO[C@@H](CN(C)C(=O)Nc2ccc3c(c2)OCO3)[C@H](C)CN([C@H](C)CO)C(=O)c2cc(NS(=O)(=O)c3ccccc3)ccc2O1,inactive,inactive,inactive
Cc1ccc([C@@H](N)c2ccncc2)cc1,inactive,inactive,inactive
C[C@@H]1CN([C@@H](C)CO)C(=O)c2cc(NS(C)(=O)=O)ccc2O[C@H]1CN(C)Cc1ccc(C(F)(F)F)cc1,inactive,inactive,inactive
C[C@@H]1CN([C@@H](C)CO)C(=O)c2cc(NC(=O)Nc3ccc4c(c3)OCO4)ccc2O[C@@H](C)CCCCO[C@H]1CN(C)C(=O)Nc1cccc2ccccc12,inactive,inactive,inactive
C[C@@H]1CN([C@H](C)CO)C(=O)c2cc(NS(=O)(=O)c3cn(C)cn3)ccc2O[C@H]1CN(C)S(=O)(=O)c1ccc(F)cc1,inactive,inactive,inactive
CC(C)NC(=O)Nc1cccc2c1O[C@H](CN(C)C(=O)Nc1ccc3c(c1)OCO3)[C@H](C)CN([C@@H](C)CO)C2=O,inactive,inactive,inactive
C[C@@H]1CN([C@H](C)CO)S(=O)(=O)c2ccc(-c3ccc(F)cc3)cc2O[C@@H]1CN(C)S(C)(=O)=O,inactive,inactive,inactive
CCN(CC)C(=O)c1cccnc1,inactive,inactive,inactive
C[C@H](CO)N1C[C@H](C)[C@H](CN(C)S(=O)(=O)c2ccccc2)OCCCC[C@H](C)Oc2ccc(NS(C)(=O)=O)cc2C1=O,inactive,inactive,inactive
CC(C(=O)O)c1ccc2c(c1)CC(=O)c1ccccc1S2 (configuration not stated),inactive,inactive,inactive
C[C@H](CO)N1C[C@H](C)[C@H](CN(C)Cc2ccc(Oc3ccccc3)cc2)Oc2ccc(NS(=O)(=O)c3ccc(F)cc3)cc2C1=O,inactive,inactive,inactive
C[C@H]1CN([C@@H](C)CO)C(=O)c2cccc(NC(=O)c3nc4ccccc4s3)c2O[C@H]1CN(C)C(=O)Nc1cccc2ccccc12,inactive,inactive,inactive

SMILES,cytotoxicity call [1],cytotoxicity call [2],growth inhibition call [3]
C[C@@H]1CN([C@@H](C)CO)C(=O)c2cccc(NC(=O)Nc3ccc(C(F)(F)F)cc3)c2O[C@@H]1CN(C)Cc1ccncc1,inactive,inactive,inactive
Cc1ccc(S(=O)(=O)Nc2ccc3c(c2)CC(=O)N([C@@H](C)CO)C[C@H](C)[C@@H](CN(C)Cc2ccc(C(F)(F)F)cc2)O3)cc1,active,active,inactive
Cc1noc(C)c1S(=O)(=O)N(C)C[C@@H]1OCCCC[C@@H](C)Oc2ccc(NS(C)(=O)=O)cc2C(=O)N([C@@H](C)CO)C[C@@H]1C,inactive,inactive,inactive
Cc1noc(C)c1NC(=O)Nc1ccc2c(c1)C(=O)N([C@@H](C)CO)C[C@@H](C)[C@H](CN(C)C(=O)C1CCCCC1)OCCCC[C@H](C)O2,inactive,inactive,inactive
Cc1noc(C)c1S(=O)(=O)Nc1ccc2c(c1)C(=O)N([C@H](C)CO)C[C@@H](C)[C@H](CN(C)S(=O)(=O)c1ccccc1)O2,inactive,inactive,inactive
C[C@H]1CN([C@@H](C)CO)C(=O)c2cccc(NC(=O)c3cnccn3)c2O[C@H]1CN(C)CC1CCCCC1,inactive,inactive,inactive
CC(C)(C)c1nc(-c2cccc(NS(=O)(=O)c3c(F)cccc3F)c2F)c(-c2ccnc(N)n2)s1,inactive,inactive,inactive
COC(=O)C[C@H]1CC[C@@H]2[C@@H](COc3ccc(NS(=O)(=O)c4ccccc4Cl)cc3C(=O)N2C)O1,inactive,inactive,inactive
COc1ccc(CN(C)C[C@H]2OCCCC[C@H](C)Oc3ccc(NC(=O)Cc4ccccc4)cc3C(=O)N([C@H](C)CO)C[C@@H]2C)cc1,inactive,inactive,inactive
C[C@H]1CN([C@@H](C)CO)C(=O)CCCn2cc(nn2)CO[C@H]1CN(C)C(=O)CCCN(C)C,inactive,inactive,inactive
C[C@H](CO)N1C[C@H](C)[C@@H](CN(C)S(=O)(=O)c2ccc(F)cc2)OCCCC[C@H](C)Oc2ccc(NS(=O)(=O)c3cn(C)cn3)cc2C1=O,inactive,inactive,inactive
COCCNC(=O)C[C@@H]1CC[C@@H]2[C@H](COC[C@@H](O)CN2S(=O)(=O)c2ccccc2C)O1,inactive,inactive,inactive
O=C(/C=C/c1ccc(O)c(O)c1)O[C@@H]1C[C@](OC(=O)/C=C/c2ccc(O)c(O)c2)(C(=O)O)C[C@@H](OC(=O)/C=C/c2ccc(O)c(O)c2)[C@H]1O,inactive,inactive,inactive
CN(C)CCCNC(=O)C[C@H]1CC[C@@H]2[C@@H](COc3ccc(NC(=O)c4ccc5c(c4)OCO5)cc3C(=O)N2C)O1,inactive,inactive,inactive
C[C@H](CO)N1C[C@H](C)[C@H](CN(C)Cc2ccc(C(=O)O)cc2)OCCCC[C@H](C)Oc2ccc(NC(=O)NC3CCCCC3)cc2C1=O,inactive,inactive,inactive
C[C@@H]1CCCCO[C@@H](CN(C)Cc2ccc(C(F)(F)F)cc2)[C@@H](C)CN([C@@H](C)CO)C(=O)c2cc(NC(=O)CCCN(C)C)ccc2O1,inactive,inactive,inactive
COc1nsnc1N1CCOCC1,inactive,inactive,inactive
C[C@H]1CN([C@@H](C)CO)C(=O)Cc2cc(NS(=O)(=O)c3ccccc3)ccc2O[C@H]1CN(C)CC1CC1,inactive,inactive,inactive
COCCOC(=O)N1C(=O)[C@@]2(c3cc(C#Cc4ccc(OC)cc4)ccc31)[C@H](C(=O)N1CCCCCCC1)[C@H]1C(=O)O[C@H](c3ccccc3)[C@H](c3ccccc3)N1[C@@H]2c1ccc(OCCO)cc1,inactive,inactive,inactive
C[C@@H]1CCCCO[C@H](CN(C)C(=O)CCC(F)(F)F)[C@@H](C)CN([C@H](C)CO)C(=O)c2cc(NC(=O)Nc3ccccc3)ccc2O1,inactive,inactive,inactive
O=c1cc(-c2ccccc2O)oc2ccc(O)cc12,inactive,inactive,inactive
CC(=O)Nc1cccc(NC(C)=O)n1,inactive,inactive,inactive
C[C@H](CO)N1C[C@H](C)[C@H](CN(C)S(=O)(=O)c2ccc(F)cc2)Oc2c(NC(=O)Nc3ccc(C(F)(F)F)cc3)cccc2C1=O,inactive,inactive,inactive
CN(C)Cc1cn(CC[C@@H]2CC[C@@H](NC(=O)Cc3cccnc3)[C@H](CO)O2)nn1,inactive,inactive,inactive
Cc1ccc(S(=O)(=O)N2C[C@H](O)COC[C@H]3O[C@H](CC(=O)N4CCc5ccccc5C4)CC[C@@H]32)cc1,inactive,inactive,inactive
Cc1noc(C)c1S(=O)(=O)N(C)C[C@@H]1Oc2c(NS(=O)(=O)c3cn(C)cn3)cccc2C(=O)N([C@H](C)CO)C[C@@H]1C,inactive,inactive,inactive
C[C@@H]1CCCCO[C@@H](CN(C)C(=O)c2ccccc2)[C@H](C)CN([C@@H](C)CO)C(=O)c2cc(NS(=O)(=O)c3ccc(F)cc3)ccc2O1,inactive,inactive,inactive

# Source: the antibiotic and cytotoxicity screens of Wong et al. (2023)
